Measurements reported in publication PMC10411901, “FIRRM cooperates with FIGNL1 to promote RAD51 disassembly during DNA repair” (Science Advances, 2023).
Results are given in words; binding and its absence hold for the method and conditions named. For some assays here: Binding seen in cells or lysates may run through a third protein. Some entries that bind do so weakly or less than the wild type. For some assays here: Where a sequence is shown, tags or fusion partners need not be part of it. One block for each molecule: values may come before it.

Experiments:
[1] = target: T1, mCherry-LacRnls-FIGNL1 (human) (UniProt Q6PIW4); test: LacO/LacR tethering assay (recruitment to a LacO array in cells); mCherry-LacRnls-FIRRM or -FIGNL1 transfected in U2OS 2-6-5 cells and processed for RAD51 immunofluorescence at the LacO array
T1 sequence: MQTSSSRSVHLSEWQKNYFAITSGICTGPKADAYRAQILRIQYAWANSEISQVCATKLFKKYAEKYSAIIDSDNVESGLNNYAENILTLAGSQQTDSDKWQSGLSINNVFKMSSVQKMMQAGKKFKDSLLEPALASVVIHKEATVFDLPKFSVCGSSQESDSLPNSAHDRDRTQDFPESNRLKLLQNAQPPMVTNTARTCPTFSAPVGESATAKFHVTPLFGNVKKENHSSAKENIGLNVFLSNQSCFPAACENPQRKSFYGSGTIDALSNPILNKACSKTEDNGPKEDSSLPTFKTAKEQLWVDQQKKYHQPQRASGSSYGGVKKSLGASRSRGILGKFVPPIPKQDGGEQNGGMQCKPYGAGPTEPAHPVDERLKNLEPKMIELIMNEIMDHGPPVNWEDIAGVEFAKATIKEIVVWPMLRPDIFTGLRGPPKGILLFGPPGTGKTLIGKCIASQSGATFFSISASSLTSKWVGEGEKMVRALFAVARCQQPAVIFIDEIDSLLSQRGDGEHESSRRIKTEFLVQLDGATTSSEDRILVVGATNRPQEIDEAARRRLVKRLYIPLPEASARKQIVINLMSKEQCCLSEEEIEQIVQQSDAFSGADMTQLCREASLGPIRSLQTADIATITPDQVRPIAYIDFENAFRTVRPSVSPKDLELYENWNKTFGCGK

[2] = target: T2, mCherry-LacRnls-FIRRM (human), Q9NSG2; test: as above; details: remark: other sources report otherwise
T2 chain: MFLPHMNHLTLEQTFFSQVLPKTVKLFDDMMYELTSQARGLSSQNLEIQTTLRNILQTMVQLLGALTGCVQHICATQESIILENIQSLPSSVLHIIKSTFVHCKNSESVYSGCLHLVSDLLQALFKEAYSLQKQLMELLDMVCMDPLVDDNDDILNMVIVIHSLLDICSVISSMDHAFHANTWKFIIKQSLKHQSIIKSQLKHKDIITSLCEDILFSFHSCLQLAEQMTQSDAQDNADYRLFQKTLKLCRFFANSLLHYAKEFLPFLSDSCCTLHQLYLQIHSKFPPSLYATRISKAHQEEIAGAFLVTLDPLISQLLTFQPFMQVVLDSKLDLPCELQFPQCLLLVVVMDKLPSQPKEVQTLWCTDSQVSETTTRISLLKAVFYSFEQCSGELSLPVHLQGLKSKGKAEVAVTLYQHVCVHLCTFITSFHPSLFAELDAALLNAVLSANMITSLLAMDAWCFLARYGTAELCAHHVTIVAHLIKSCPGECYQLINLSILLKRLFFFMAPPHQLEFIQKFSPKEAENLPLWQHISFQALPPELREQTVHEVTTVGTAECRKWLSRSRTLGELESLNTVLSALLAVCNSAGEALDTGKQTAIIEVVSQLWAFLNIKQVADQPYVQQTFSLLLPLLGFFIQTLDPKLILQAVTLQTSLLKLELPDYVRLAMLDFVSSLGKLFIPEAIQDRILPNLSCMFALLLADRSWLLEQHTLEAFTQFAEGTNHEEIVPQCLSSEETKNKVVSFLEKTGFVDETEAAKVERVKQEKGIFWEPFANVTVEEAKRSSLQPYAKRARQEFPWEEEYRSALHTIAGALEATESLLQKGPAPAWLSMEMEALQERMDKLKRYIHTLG

[3] = target: T3, mCherry-LacRnls-FIGNL1 amino acids 1 to 120 (human), Q6PIW4; test: LacO/LacR tethering assay (recruitment to a LacO array in cells); mCherry-LacRnls-bait transiently transfected and held at the LacO array of U2OS 2-6-5 cells; colocalization of the GFP-tagged prey at the mCherry locus quantified; FOK1 nuclease not expressed; details: remark: other sources report otherwise
T3 chain: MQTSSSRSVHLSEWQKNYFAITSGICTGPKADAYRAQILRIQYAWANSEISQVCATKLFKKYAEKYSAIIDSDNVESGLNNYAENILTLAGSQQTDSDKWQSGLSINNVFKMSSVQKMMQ

[4] = target: T1, mCherry-LacRnls-FIGNL1 (human); test: as above
3xFLAG-FIRRM FL (human) = target: T4, 3xFLAG-FIRRM FL (human) (UniProt Q9NSG2); test: co-IP; FLAG IP from U2OS cells depleted for FIGNL1 (siRNA) and transfected for 24 hours; high-salt buffer (300 mM NaCl, 50 mM tris-HCl, 1 mM EDTA, 1% Triton X-100); immunoblot
T4 sequence: T2 chain

recombinant RAD51 = recombinant RAD51 (UniProt Q06609); test: co-IP; purified recombinant proteins in pairs (RAD51 with FIGNL1 or with FIRRM); anti-RAD51 14B4 on protein A/G Sepharose; IPB buffer (20 mM KPO4 pH 7.4, 175 mM KCl, 0.5 mM EDTA, 0.5% NP-40, 10% glycerol, 1 mM DTT); room temperature; Western blot; both purified
[5] = target: T5, mCherry-LacRnls-FIRRM (human) (UniProt Q9NSG2); test: LacO/LacR tethering assay (recruitment to a LacO array in cells); mCherry-LacRnls-bait transiently transfected and held at the LacO array of U2OS 2-6-5 cells; colocalization of the GFP-tagged prey at the mCherry locus quantified; FOK1 nuclease not expressed
T5 sequence: T2 chain

[6] = target: T6, endogenous FIRRM (human (endogenous in U2OS)) (UniProt Q9NSG2); test: co-IP; immunoprecipitation of endogenous FIRRM from U2OS cell extracts treated with benzonase; immunoblot
T6 sequence: T2 chain

B1: endogenous RAD51, Q06609 1-339 (protein)
chain: MAMQMQLEANADTSVEEESFGPQPISRLEQCGINANDVKKLEEAGFHTVEAVAYAPKKELINIKGISEAKADKILAEAAKLVPMGFTTATEFHQRRSEIIQITTGSKELDKLLQGGIETGSITEMFGEFRTGKTQICHTLAVTCQLPIDRGGGEGKAMYIDTEGTFRPERLLAVAERYGLSGSDVLDNVAYARAFNTDHQTQLLYQASAMMVESRYALLIVDSATALYRTDYSGRGELSARQMHLARFLRMLLRLADEFGVAVVITNQVVAQVDGAAMFAADPKKPIGGNIIAHASTTRLYLRKGRGETRICKIYDSPCLPEAEAMFAINADGVGDAKD
binding [2]: no binding

B4: mCherry-LacRnls-FIGNL1 (protein, UniProt Q6PIW4 1-674)
chain: T1 sequence
binding (3xFLAG-FIRRM FL (human)): binds

B6: GFP-tagged FIGNL1 (protein, UniProt Q6PIW4 1-674)
chain: T1 sequence
binding [5]: binds

B7: endogenous FIGNL1 (Fidgetin like 1) (protein, UniProt Q6PIW4 1-674)
chain: T1 sequence
binding [6]: binds

Other lines, results leading:

binding [1]: binds
Molecule: endogenous RAD51 (from UniProt Q06609 1-339)

binding [3]: no binding
B2: GFP-FIRRM full length, Q9NSG2 1-853 (protein)
chain: T2 chain

binding [4]: binds
B3: GFP-FIRRM amino acids 1 to 735 (domain or fragment, UniProt Q9NSG2 1-735)
chain: MFLPHMNHLTLEQTFFSQVLPKTVKLFDDMMYELTSQARGLSSQNLEIQTTLRNILQTMVQLLGALTGCVQHICATQESIILENIQSLPSSVLHIIKSTFVHCKNSESVYSGCLHLVSDLLQALFKEAYSLQKQLMELLDMVCMDPLVDDNDDILNMVIVIHSLLDICSVISSMDHAFHANTWKFIIKQSLKHQSIIKSQLKHKDIITSLCEDILFSFHSCLQLAEQMTQSDAQDNADYRLFQKTLKLCRFFANSLLHYAKEFLPFLSDSCCTLHQLYLQIHSKFPPSLYATRISKAHQEEIAGAFLVTLDPLISQLLTFQPFMQVVLDSKLDLPCELQFPQCLLLVVVMDKLPSQPKEVQTLWCTDSQVSETTTRISLLKAVFYSFEQCSGELSLPVHLQGLKSKGKAEVAVTLYQHVCVHLCTFITSFHPSLFAELDAALLNAVLSANMITSLLAMDAWCFLARYGTAELCAHHVTIVAHLIKSCPGECYQLINLSILLKRLFFFMAPPHQLEFIQKFSPKEAENLPLWQHISFQALPPELREQTVHEVTTVGTAECRKWLSRSRTLGELESLNTVLSALLAVCNSAGEALDTGKQTAIIEVVSQLWAFLNIKQVADQPYVQQTFSLLLPLLGFFIQTLDPKLILQAVTLQTSLLKLELPDYVRLAMLDFVSSLGKLFIPEAIQDRILPNLSCMFALLLADRSWLLEQHTLEAFTQFAEGTNHEEIVPQCLSS

binding (recombinant RAD51): binds
B5: recombinant full-length FIGNL1 (natural protein, human, UniProt Q6PIW4 1-674, looked up)
chain: T1 sequence
notes: Insect cell form: modified pFastBac dual vector with an N-terminal GFP tag removable with TEV protease; source: purified from bacteria (E. coli BL21RP) or Sf9 insect cells
